Hit rate of the full screen: of about 310,000 compounds, about 18,000 (5.8%) were called active. This list was built around the results that the source calls inconclusive (neither active nor inactive); the mix of calls is not that of the screen. Calls come from the whole dose curve; as a rule, active = well fitted inhibition curve with a large enough effect; inconclusive = small, poorly fitted or top-dose-only effect, or another doubt; inactive = no such curve, though single readings can be large or run the other way. No potency is given beside an inconclusive call; the fits are too rough.
Assay: Primary qHTS for delayed death inhibitors of the malarial parasite plastid, 48 hour incubation
Settings: P. falciparum luciferase growth in erythrocytes; series mostly up to 28.7 µM; activity change, negative = inhibition: at the top concentration
Summary of the method: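 In quantitative HTS format, infected erythrocytes bearing luciferase-reporter parasites were treated for a single generation at 37 C. Luminescence after adding detection reagent served as the growth measure.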
% is set by controls: 0 for no effect and ±100 for the full control effect; potency is the fitted concentration of half-maximal effect; tags give direction and shape of the fitted curve.

SMILES | activity change, negative = inhibition | Potency
Cc1ccc(S(=O)(=O)CC(=O)Nc2sc(C)c(C)c2C(N)=O)cc1 | inactive: 1.71% | –
Cc1cc(Cl)ccc1OCCCC(=O)N1CCOCC1 | inactive: 40% | –
N=c1n(CCN2CCCC2)c2ccccc2n1CC(O)c1ccco1 (stereo not drawn) | – | inconclusive [inhibitor, single point]
COc1ccc(NC(=O)c2cn(-c3ccccc3)nc2-c2ccncc2)cc1 | – | inconclusive [inhibitor, single point]
CCOC(=O)c1c(N)n(Cc2ccc(OC)cc2)c2nc3ccccc3nc12 | – | inconclusive [inhibitor, single point]
Cn1nc(C(=O)OCC(=O)NCCc2ccccc2)c2ccccc2c1=O | – | inconclusive [inhibitor, single point]
CCN(CC(=O)Nc1c(F)cccc1F)C(=O)COc1cccc2c1OC(C)(C)C2 | inactive: -3.43% | –
CCOc1ccccc1N1C(=O)NC(=O)C(CCc2ccncc2)(CCc2ccncc2)C1=O | – | inconclusive [inhibitor, single point]
Cc1cc(OC(C)C(=O)NNC(=O)Nc2ccc(F)cc2F)cc(C)c1Cl (stereo not drawn) | inactive: 7.07% | –
COc1ccc(C(CNC(=O)c2ccc(NS(=O)(=O)c3ccc(F)cc3)cc2)N2CCOCC2)cc1 (stereo not drawn) | – | inconclusive [inhibitor, single point]
CCC1=NN2C(=N)/C(=C\c3ccc(OCCOc4ccc(NC(C)=O)cc4)cc3)C(=O)N=C2S1 | inactive: -24.2% | –
CCc1nc(Nc2ccc(OC)cc2OC)c2oc3ccccc3c2n1 | – | inconclusive [inhibitor, single point]
COc1ccc(F)c(CN2CCC(CO)(Cc3cccc(C(F)(F)F)c3)CC2)c1 | – | inconclusive [inhibitor, single point]
Cc1ccnc(N2CCN(C(=O)CSc3nc4ccccc4nc3N3CCC(C)CC3)CC2)c1 | – | inconclusive [inhibitor, partial curve]
CCNC(=S)N(Cc1ccco1)Cc1cc2cc(OCC)ccc2[nH]c1=O | – | inconclusive [inhibitor, single point]
COc1ccccc1CC(=O)N1CCN(S(=O)(=O)c2ccccc2)CC1 | inactive: -6.67% | –
O=C(NCC1CCCO1)c1ccc2c(=O)n(Cc3cccc(Br)c3)c(=S)[nH]c2c1 (stereo not drawn) | – | inconclusive [inhibitor, partial curve, poor fit]
Cc1cc(C)c(S(=O)(=O)n2ccc(-c3ccc(OCCN(C)c4ccccn4)cc3)n2)c(C)c1 | – | active: 1.85 µM
Cc1ccc(-n2c(-c3ccncc3)nnc2-c2ccco2)cc1 | inactive: -5.25% | –
Nc1nonc1-n1nnc(C(=O)N/N=C/c2cc(Br)ccc2O)c1CNc1ccccc1 | – | inconclusive [inhibitor, single point]
CNC(=O)CC1C(=O)N(c2ccc(Cl)cc2)C(=S)N1CCc1ccc(OC)c(OC)c1 (stereo not drawn) | – | active: 11.7 µM
Cc1cccc(C(=O)NC2CCN(S(=O)(=O)c3ccccc3F)CC2)c1 | – | inconclusive [inhibitor, full curve]

SMILES | activity change, negative = inhibition | Potency
CS(=O)(=O)N(CC(=O)Nc1c(F)cccc1F)c1ccc(C23CC4CC(CC(C4)C2)C3)cc1 | – | inconclusive [inhibitor, partial curve, poor fit]
CCOC(=O)c1nc(Nc2cc(C)cc(C)c2)c2ccccc2n1 | – | inconclusive [inhibitor, single point]
CCCCCN(C(=O)CCC(=O)OCC(=O)c1c(C)cc(C)cc1C)c1c(N)n(CCCC)c(=O)[nH]c1=O | – | inconclusive [inhibitor, single point]
COc1ccccc1NC(=O)CSc1nnc2ccc(-c3cccnc3)nn12 | inactive: -29.5% | –
CCC(=O)Nc1ccc(OCc2nnc3c4ccccc4c(C)nn23)cc1 | – | inconclusive [inhibitor, partial curve, poor fit]
NC(=O)C1(N2CCCCC2)CCN(CC(=O)Nc2ccccc2Sc2ccccc2)CC1 | – | inconclusive [inhibitor, single point]
CC(=O)N1c2ccc(S(=O)(=O)N3CCC(C(=O)NC4CCC(C)CC4)CC3)cc2CC1C (stereo not drawn) | – | inconclusive [inhibitor, single point]
Cc1cccc(Nc2ccc([N+](=O)[O-])cn2)c1 | – | inconclusive [inhibitor, single point]
CCC(=O)N1CCN(c2ccc(NC(=O)c3ccc([N+](=O)[O-])o3)cc2)CC1 | – | active: 10.4 µM
COc1ccccc1-c1c(C(F)(F)F)oc2cc(OC(=O)c3ccc([N+](=O)[O-])cc3)ccc2c1=O | inactive: -1.99% | –
CCOC(=O)/C=C1\CN(C(C)c2ccccc2)S(=O)(=O)c2ccccc21 (stereo not drawn) | inactive: -3.23% | –
Cc1ccc(S(=O)(=O)N(C(=O)c2ccncc2)c2ccc(OC(=O)c3ccncc3)c3ccccc23)cc1 | – | active: 10.4 µM
O=c1cc(-c2ccc(O)c(O)c2)oc2ccc3ccccc3c12 | – | inconclusive [inhibitor, full curve, poor fit]
O=C(CSc1nnc(-c2ccccc2)c2ccccc12)NCCN1C(=O)CSC1=O | inactive: -12.9% | –
O=C(c1cc(Cl)nc2ccccc12)N(Cc1nnc(-c2ccc(Cl)cc2)o1)C1CC1 | – | inconclusive [inhibitor, single point]
O=C(Nc1cccc(-c2cn3cccnc3n2)c1)c1ccco1 | inactive: -15.2% | –
COc1ccc(CNC(=O)c2nn(-c3ccccc3)cc2OC)cc1 | – | inconclusive [inhibitor, single point]
O=C(NCc1ccccc1CN1CCCC1)C1CCN(C(=O)c2ccc(F)cc2)CC1 | – | inconclusive [inhibitor, single point]
COc1cccc(NC(=O)C2CCN(C(=O)[C@@H]3Cc4ccccc4CN3C(=O)OC(C)(C)C)CC2)c1 | – | active: 10.4 µM
CC/C(=N\NC(=O)c1ccc(Br)cc1)c1ccccc1 | inactive: -5.69% | –
O=S(=O)(c1ccc2c(c1)OCCO2)N1CCC(c2nc3ccccc3[nH]2)CC1 | – | inconclusive [inhibitor, partial curve]

From PubChem BioAssay AID504832 (National Center for Advancing Translational Sciences (NCATS), 2011)
